Where a chain is given by its changes, count along the chain named. The list shows a part of the results.
T1: RBFOX1 RRM (Homo sapiens, UniProt Q9NWB1 109-208)
T1 sequence: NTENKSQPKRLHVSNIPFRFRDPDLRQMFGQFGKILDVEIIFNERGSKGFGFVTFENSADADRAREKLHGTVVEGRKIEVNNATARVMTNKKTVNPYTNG

B1: AAGCCCC (DNA:RNA)
RNA: GGGAGACCGGAAUUCAGAUUGUCCAAGCCCCUUAAAUCCCGUCGUAGCCACCA
DNA 1: CAATCTGAATTCCGGTCTCCC
DNA 2: TGGTGGCTACGACGGGATT
B2: CGACUAC (DNA:RNA)
RNA: B1 RNA with A25C, A26G, G27A, C29U, C30A
DNA 1: CAATCTGAATTCCGGTCTCCC
DNA 2: TGGTGGCTACGACGGGATT
B3: CUCCUUG (DNA:RNA)
RNA: B1 RNA with A25C, A26U, G27C, C29U, C30U, C31G
DNA 1: CAATCTGAATTCCGGTCTCCC
DNA 2: TGGTGGCTACGACGGGATT
B4: GAUCCCG (DNA:RNA)
RNA: B1 RNA with A25G, G27U, C31G
DNA 1: CAATCTGAATTCCGGTCTCCC
DNA 2: TGGTGGCTACGACGGGATT
B5: GGUCUUG (DNA:RNA)
RNA: B1 RNA with A25G, A26G, G27U, C29U, C30U, C31G
DNA 1: CAATCTGAATTCCGGTCTCCC
DNA 2: TGGTGGCTACGACGGGATT
B6: GGAAAGC (DNA:RNA)
RNA: B1 RNA with A25G, A26G, G27A, C28A, C29A, C30G
DNA 1: CAATCTGAATTCCGGTCTCCC
DNA 2: TGGTGGCTACGACGGGATT
B7: UUUAGGC (DNA:RNA)
RNA: B1 RNA with A25U, A26U, G27U, C28A, C29G, C30G
DNA 1: CAATCTGAATTCCGGTCTCCC
DNA 2: TGGTGGCTACGACGGGATT
B8: CCUGGUC (DNA:RNA)
RNA: B1 RNA with A25C, A26C, G27U, C28G, C29G, C30U
DNA 1: CAATCTGAATTCCGGTCTCCC
DNA 2: TGGTGGCTACGACGGGATT
B9: UCAACGA (DNA:RNA)
RNA: B1 RNA with A25U, A26C, G27A, C28A, C30G, C31A
DNA 1: CAATCTGAATTCCGGTCTCCC
DNA 2: TGGTGGCTACGACGGGATT
B10: CGGAAUU (DNA:RNA)
RNA: B1 RNA with A25C, A26G, C28A, C29A, C30U, C31U
DNA 1: CAATCTGAATTCCGGTCTCCC
DNA 2: TGGTGGCTACGACGGGATT
B11: GGAAAGA (DNA:RNA)
RNA: GGGAGACCGGAAUUCAGAUUGUCCGGAAAGAUUAAAUCCCGUCGUAGCCACCA
DNA 1: CAATCTGAATTCCGGTCTCCC
DNA 2: TGGTGGCTACGACGGGATT
B12: UUGCUUG (DNA:RNA)
RNA: B1 RNA with A25U, A26U, C29U, C30U, C31G
DNA 1: CAATCTGAATTCCGGTCTCCC
DNA 2: TGGTGGCTACGACGGGATT
B13: UGUAACG (DNA:RNA)
RNA: B11 RNA with G25U, A27U, G30C, A31G
DNA 1: CAATCTGAATTCCGGTCTCCC
DNA 2: TGGTGGCTACGACGGGATT
B14: UGCACGG (DNA:RNA)
RNA: B11 RNA with G25U, A27C, A29C, A31G
DNA 1: CAATCTGAATTCCGGTCTCCC
DNA 2: TGGTGGCTACGACGGGATT
B15: GCGACCG (DNA:RNA)
RNA: B1 RNA with A25G, A26C, C28A, C31G
DNA 1: CAATCTGAATTCCGGTCTCCC
DNA 2: TGGTGGCTACGACGGGATT
B16: ACUGCGG (DNA:RNA)
RNA: B1 RNA with A26C, G27U, C28G, C30G, C31G
DNA 1: CAATCTGAATTCCGGTCTCCC
DNA 2: TGGTGGCTACGACGGGATT
B17: CACCACG (DNA:RNA)
RNA: B1 RNA with A25C, G27C, C29A, C31G
DNA 1: CAATCTGAATTCCGGTCTCCC
DNA 2: TGGTGGCTACGACGGGATT
B18: GUAUCCC (DNA:RNA)
RNA: B1 RNA with A25G, A26U, G27A, C28U
DNA 1: CAATCTGAATTCCGGTCTCCC
DNA 2: TGGTGGCTACGACGGGATT
B19: CGCGGAC (DNA:RNA)
RNA: B1 RNA with A25C, A26G, G27C, C28G, C29G, C30A
DNA 1: CAATCTGAATTCCGGTCTCCC
DNA 2: TGGTGGCTACGACGGGATT
B20: AUACAUG (DNA:RNA)
RNA: B1 RNA with A26U, G27A, C29A, C30U, C31G
DNA 1: CAATCTGAATTCCGGTCTCCC
DNA 2: TGGTGGCTACGACGGGATT

Target: T1, RBFOX1 RRM
Assay: EMSA; HiTS-Eq, 1 nM pool, 10 min; buffer printed only for the single-RNA assays: 10 mM Tris pH 7.5, 150 mM NaCl, 3.4 mM EDTA, 0.001% NP-40, 30 C
Settings: tags: His6 N-terminal (pET28a); label: 5' 32P
Summary of the method: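 A pool of RNA with 7 randomized nucleotides, 5′-radiolabelled and with DNA-annealed flanks, was equilibrated at 1 nM for 10 min in 50 µL with purified RbFox RRM, wild type or mutant, across increasing protein concentrations. Free RNA was separated by 8% native PAGE, excised, reverse-transcribed, barcoded by PCR and sequenced. Relative association constants were obtained from read-count changes of each RNA species versus the control reaction and normalised to the cognate motif.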

Binder | binding signal
B1 | 0.00587 KA relative to UGCAUGU
B2 | 0.00579 KA relative to UGCAUGU
B3 | 0.0116 KA relative to UGCAUGU
B4 | 0.0114 KA relative to UGCAUGU
B5 | 0.0242 KA relative to UGCAUGU
B6 | 0.0179 KA relative to UGCAUGU
B7 | 0.0106 KA relative to UGCAUGU
B8 | 0.0104 KA relative to UGCAUGU
B9 | 0.00534 KA relative to UGCAUGU
B10 | 0.0271 KA relative to UGCAUGU
B11 | 0.0132 KA relative to UGCAUGU
B12 | 0.0749 KA relative to UGCAUGU
B13 | 0.014 KA relative to UGCAUGU
B14 | 0.077 KA relative to UGCAUGU
B15 | 0.0158 KA relative to UGCAUGU
B16 | 0.0112 KA relative to UGCAUGU
B17 | 0.00143 KA relative to UGCAUGU
B18 | 0.00481 KA relative to UGCAUGU
B19 | 0.01 KA relative to UGCAUGU
B20 | 0.00318 KA relative to UGCAUGU

From paper PMC9911399, “Two distinct binding modes provide the RNA-binding protein RbFox with extraordinary sequence specificity”
